Assay results published in the supplement of paper PMC7826260.
The other results are listed elsewhere or left out. One pool of 16,384 single-stranded DNAs met each Rep nickase domain in vitro at 3 µM enzyme and 37 °C for 1 h; the strands have 90 letters, of which the middle is given. Numbers give uncut DNA relative to the enzyme-free pool, as log2; more negative means more cut, near 0 not cut, and no call is made. Because reads are shares of a total, they shift together; uncut strands gain when others are lost, and binding without cutting may add a little.

Key:
Assay in all cases: uncleaved DNA left, log2 of reads against the no-enzyme library (log2 ratio); higher = less cleavage (more negative = more Rep cleavage of the k-mer); sequences stand for … in CTCGTCCG…ACCGGAGA
[1] = tested on: T1, Rep nickase domain of Muscovy duck circovirus
T1 sequence (protein, residues 1-111, tag omitted): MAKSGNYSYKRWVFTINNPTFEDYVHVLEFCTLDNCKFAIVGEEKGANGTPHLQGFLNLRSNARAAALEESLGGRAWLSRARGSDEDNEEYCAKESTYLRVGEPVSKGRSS
Protocol: (§1)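 A pool of 90-nt single-stranded DNAs with seven random bases just before the constant AC of the nick site (name = the seven bases) was cut by 3 µM recombinant His6-SUMO-tagged Rep nickase domain (300 nM DNA, 50 mM HEPES pH 8.0, 50 mM NaCl, 1 mM MnCl2, 1 h, 37 °C, three replicates). Uncut DNA was amplified and sequenced.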

[2] = tested on: T2, Rep nickase domain of banana bunchy top virus
T2 sequence (protein, residues 1-94, tag omitted): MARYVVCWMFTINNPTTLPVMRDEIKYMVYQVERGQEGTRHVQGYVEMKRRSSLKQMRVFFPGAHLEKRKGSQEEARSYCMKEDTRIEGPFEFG
Protocol: as §1

[3] = tested on: T3, Rep nickase domain of cabbage leaf curl virus
T3 sequence (protein, residues 1-116, tag omitted): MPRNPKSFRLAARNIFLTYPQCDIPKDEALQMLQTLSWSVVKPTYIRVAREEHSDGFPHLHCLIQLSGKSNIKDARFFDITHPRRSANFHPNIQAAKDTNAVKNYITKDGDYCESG
Protocol: as §1

[4] = tested on: T4, Rep nickase domain of chickpea chlorotic dwarf virus
T4 sequence (protein, residues 1-124, tag omitted): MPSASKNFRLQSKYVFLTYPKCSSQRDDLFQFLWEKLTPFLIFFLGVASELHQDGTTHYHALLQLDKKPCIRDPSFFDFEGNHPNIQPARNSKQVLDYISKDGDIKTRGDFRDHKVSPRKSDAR
Protocol: as §1

[5] = tested on: T5, Rep nickase domain of faba bean necrotic yellows virus
T5 sequence (protein, residues 1-98, tag omitted): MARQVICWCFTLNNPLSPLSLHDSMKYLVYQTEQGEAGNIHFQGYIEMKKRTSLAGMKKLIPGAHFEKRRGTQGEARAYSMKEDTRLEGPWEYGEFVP
Protocol: as §1

[6] = tested on: T6, Rep nickase domain of maize striate mosaic virus
T6 sequence (protein, residues 1-117, tag omitted): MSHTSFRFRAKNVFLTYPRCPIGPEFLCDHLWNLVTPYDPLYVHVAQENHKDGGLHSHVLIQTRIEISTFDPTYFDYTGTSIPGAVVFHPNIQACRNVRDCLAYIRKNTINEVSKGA
Protocol: as §1

[7] = tested on: T7, Rep nickase domain of porcine circovirus 2
T7 sequence (protein, residues 2-116, tag omitted): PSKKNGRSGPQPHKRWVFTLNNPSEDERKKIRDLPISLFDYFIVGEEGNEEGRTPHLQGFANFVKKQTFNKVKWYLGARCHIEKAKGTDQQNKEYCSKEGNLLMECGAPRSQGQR
Protocol: as §1

[8] = tested on: T8, Rep nickase domain of tomato golden mosaic virus
T8 sequence (protein, residues 1-124, tag omitted): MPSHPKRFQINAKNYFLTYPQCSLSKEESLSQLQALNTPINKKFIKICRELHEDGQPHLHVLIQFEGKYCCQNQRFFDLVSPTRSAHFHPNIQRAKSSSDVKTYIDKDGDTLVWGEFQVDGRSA
Protocol: as §1

[9] = tested on: T9, Rep nickase domain of tomato yellow leaf curl virus
T9 sequence (protein, residues 1-136, tag omitted): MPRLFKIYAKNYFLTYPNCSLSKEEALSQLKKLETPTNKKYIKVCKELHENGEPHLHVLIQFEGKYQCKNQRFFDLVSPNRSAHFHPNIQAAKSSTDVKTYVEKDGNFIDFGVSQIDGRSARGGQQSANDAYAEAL
Protocol: as §1

[10] = tested on: T10, Rep nickase domain of wheat dwarf virus
T10 sequence (protein, residues 1-137, tag omitted): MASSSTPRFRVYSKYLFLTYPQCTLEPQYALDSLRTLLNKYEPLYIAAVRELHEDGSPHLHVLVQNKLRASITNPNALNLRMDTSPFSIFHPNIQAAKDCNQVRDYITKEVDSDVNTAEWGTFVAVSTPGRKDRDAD
Protocol: as §1

Sequence | uncleaved DNA left (log2) [1] | uncleaved DNA left (log2) [2] | uncleaved DNA left (log2) [3] | uncleaved DNA left (log2) [4] | uncleaved DNA left (log2) [5] | uncleaved DNA left (log2) [6] | uncleaved DNA left (log2) [7] | uncleaved DNA left (log2) [8] | uncleaved DNA left (log2) [9] | uncleaved DNA left (log2) [10]
GGAGATC | -0.00247 | 0.0764 | 0.722 | 1.73 | 0.0587 | 2.11 | 0.154 | 0.102 | 0.0402 | 0.166
GGGCGGA | -0.0175 | 0.00551 | 0.645 | 1.7 | -0.101 | 2.02 | 0.0562 | -0.0181 | -0.0769 | -0.0152
TTAAGGG | 0.15 | 0.0161 | 0.145 | 0.473 | 0.0494 | 0.176 | 0.144 | 0.169 | -0.0242 | 0.0902
AGGAGTG | 0.102 | 0.0638 | -0.00349 | 0.561 | 0.108 | 1.08 | 0.0789 | 0.122 | -0.0691 | 0.0608
AATGCCA | 0.00393 | 0.0138 | -0.191 | -1.08 | -0.00559 | -0.491 | -0.0986 | 0.0554 | -0.044 | -0.0877
AAGGCGT | 0.0668 | 0.0105 | -0.281 | 0.0682 | 0.0228 | -0.311 | 0.113 | 0.0627 | 0.0425 | 0.0582
ATTTAAT | -3.12 | -3.29 | -0.216 | -1.35 | -0.175 | -0.496 | -3.91 | -0.184 | -0.0193 | -0.193
TTTTTGG | 0.113 | 0.026 | 0.199 | 0.268 | 0.0434 | 0.0316 | 0.108 | 0.0842 | -0.0303 | -0.0285
TTTAGGC | -0.0581 | -0.103 | 0.359 | 0.697 | -0.0483 | 0.64 | 0.0951 | 0.0681 | -0.138 | 0.0485
ATTCCCT | -0.938 | -0.311 | -0.273 | -2.17 | -0.121 | -0.629 | -3.31 | -0.228 | -0.0852 | -0.184
ATAAATG | 0.0686 | 0.0371 | -0.553 | -0.537 | -0.062 | -1.04 | 0.17 | 0.0341 | 0.0144 | 0.0108
ACTGGGA | -0.022 | 0.0025 | -0.0204 | 0.261 | -0.0336 | -0.245 | 0.00301 | 0.0186 | 0.016 | -0.0495
GTACGTA | 0.0957 | 0.0117 | 0.393 | 0.718 | 0.0298 | 1.34 | 0.131 | 0.0328 | 0.0632 | 0.0764
GCTGCCG | 0.00656 | 0.0181 | -0.5 | -0.391 | 0.0131 | -0.816 | -0.0304 | -0.00349 | -0.135 | -0.0883
TTACATT | 0.0492 | 0.0293 | -0.155 | -2.13 | 0.0947 | 0.594 | -0.0921 | -0.0309 | 0.123 | -0.0577
TGCGCTC | -0.0416 | -0.00644 | -0.0952 | -0.218 | -0.0146 | -0.374 | 0.0706 | -0.0534 | -0.0754 | -0.0521
TATTGTC | -0.181 | 0.0517 | -0.357 | -0.798 | 0.134 | -1.36 | -0.172 | -0.0201 | 0.185 | 0.0427
TCTACGA | -0.0442 | -0.104 | 0.123 | -0.698 | -0.112 | -0.539 | 0.0364 | -0.0201 | -0.0786 | -0.0638
AGTTGCC | 0.0664 | 0.00896 | -0.596 | -0.424 | 0.204 | -1.12 | 0.184 | -0.0335 | 0.141 | -0.0539
CAAGAAA | 0.044 | -0.0747 | 0.119 | -0.305 | 0.0256 | -0.472 | 0.116 | 0.00808 | -0.0385 | 0.0113
CTCATGG | -0.0344 | -0.0131 | -0.0996 | 0.317 | -0.0115 | -0.437 | 0.125 | 0.0106 | -0.00677 | 0.0222
ATTCTAC | -0.515 | -0.159 | -0.438 | -2.36 | -0.022 | -0.626 | -0.383 | -0.0655 | -0.158 | -0.108
CGTGCCG | -0.0701 | -0.201 | -0.832 | -0.478 | -0.0305 | -0.822 | 0.0775 | -0.105 | -0.0902 | -0.192
ACTCGGC | 0.0193 | -0.0135 | -0.5 | -0.569 | -0.0408 | -1.2 | 0.185 | 0.0305 | 0.0157 | -0.0787
TTGAACC | -0.0234 | 0.0896 | 0.18 | -0.426 | 0.128 | -0.328 | -0.358 | 0.0265 | 0.0576 | 0.0734
AGTTCCG | -0.00911 | -0.0211 | -0.831 | -0.161 | 0.00284 | -1.09 | 0.0671 | -0.117 | -0.0584 | -0.139
TCAAAAC | 0.105 | 0.0827 | 0.19 | -0.278 | 0.075 | -0.568 | 0.138 | 0.206 | 0.0425 | 0.0829
CTGTCTC | 0.0877 | -0.0382 | 0.0809 | 0.137 | 0.0443 | 0.221 | -0.108 | -0.0542 | 0.0768 | 0.000786
GAGCGAG | 0.0257 | 0.0711 | -0.0816 | 0.53 | -0.00993 | 0.725 | 0.131 | 0.0753 | 0.116 | 0.12
